These results are taken from the supplement of paper PMC3334620.

Whole data set: some 33,000 sequences, median “E-score (-0.5 to 0.5)” near -0.016, cut for the highest 2% near 0.32. The list shows a part of the results.

For this test, the target named is T1, Stp1 (UniProt B3LFK1).
T1 sequence: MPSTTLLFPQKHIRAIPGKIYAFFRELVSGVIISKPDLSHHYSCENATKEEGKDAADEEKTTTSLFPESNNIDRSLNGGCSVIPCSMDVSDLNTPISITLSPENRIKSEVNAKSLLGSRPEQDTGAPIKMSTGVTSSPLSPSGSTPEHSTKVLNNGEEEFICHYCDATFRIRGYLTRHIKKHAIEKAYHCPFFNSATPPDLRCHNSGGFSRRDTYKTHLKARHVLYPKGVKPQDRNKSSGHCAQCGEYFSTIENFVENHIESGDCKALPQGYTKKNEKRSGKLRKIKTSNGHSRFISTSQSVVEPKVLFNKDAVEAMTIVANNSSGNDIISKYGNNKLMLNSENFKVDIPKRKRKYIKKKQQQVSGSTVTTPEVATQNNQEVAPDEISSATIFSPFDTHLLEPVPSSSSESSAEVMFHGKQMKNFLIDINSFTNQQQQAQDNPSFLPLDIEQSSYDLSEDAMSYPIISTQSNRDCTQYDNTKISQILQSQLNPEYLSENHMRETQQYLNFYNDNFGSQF
Kind of test: PBM E-score (8-mer binding enrichment) (E-score (-0.5 to 0.5)); higher = stronger / more preferred TF binding; most listed sequences are background and not binding sites. To be noted: protein concentration: 200 nM; construct: GST-full length. Here is the method:
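Universal 'all 10-mer' protein binding microarrays (Agilent AMADID 015681) probed with GST-tagged S. cerevisiae TFs (full-length or DBD) made by in vitro transcription/translation (PURExpress), about 100-200 nM. Bound TF was detected with fluorescent anti-GST. Each ungapped 8-mer (which stands for itself and its reverse complement) is scored by the PBM enrichment score (E-score), a modified Wilcoxon-Mann-Whitney statistic from -0.5 to +0.5, computed with the Universal PBM Analysis Suite. Scale: above 0.35 generally sequence-specific binding.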
Turning to CACCGAAG, the “PBM E-score” value worked out at 0.0689.

For ATGATCCC, the “PBM E-score” value was -0.0931.

With AAATTCAC, the “PBM E-score” value was determined as 0.224.

In the case of AGTTCGAG, the “PBM E-score” value is -0.0423.

AACTCCGC: the “PBM E-score” value was -0.152.

For CAGACCTA, the “PBM E-score” value was -0.103.

Consider CCTTAGTA, for which the “PBM E-score” value is -0.0395.

As for CAACGACA, the “PBM E-score” value was determined as 0.0449.

As for CGCGGGTC, the “PBM E-score” value came to 0.214.

Take ACGGGGAG: the “PBM E-score” value was -0.0206.

Consider CGTAACAG, for which the “PBM E-score” value was 0.0445.

Take ATTCAAAG: the “PBM E-score” value was -0.0722.

As for CGGAGCAC, the “PBM E-score” value amounted to 0.0182.

As for CGCAAGGC, the “PBM E-score” value is 0.388.

On to ATCCTACA, for which the “PBM E-score” value was -0.0594.

Regarding ATCATGCG, the “PBM E-score” value was determined as 0.0666.

Regarding CAGACCCC, the “PBM E-score” value was -0.381.

For ACCTCTGG, the “PBM E-score” value was -0.2.

As to AAACCCTA, the “PBM E-score” value was -0.104.

As for CGCTCATA, the “PBM E-score” value was 0.0012.

Consider AGATACCC, for which the “PBM E-score” value was -0.106.

For AAGCCCGG, the “PBM E-score” value is -0.298.

In the case of GACGAATC, the “PBM E-score” value is 0.0357.

For the sequence AGTAACAG, the “PBM E-score” value was -0.0252.

As to GAACGATA, the “PBM E-score” value is -0.0613.

On to ACATGAGC, for which the “PBM E-score” value was -0.0781.

On to CGGGGGCA, for which the “PBM E-score” value is -0.209.

For CAACCAAG, the “PBM E-score” value was determined as 0.0324.

For CTCGAAAA, the “PBM E-score” value was 0.0859.

Turning to CAAAAACG, the “PBM E-score” value was found to be 0.0607.

As for ATGCCCAC, the “PBM E-score” value was 0.144.

As to CGGTTCTA, the “PBM E-score” value was found to be 0.15.

For CTCCAACC, the “PBM E-score” value amounted to 0.00283.

With CACCGCCA, the “PBM E-score” value was -0.17.

Consider GCGTCGCC, for which the “PBM E-score” value came out at 0.21.

Regarding CAATTGCC, the “PBM E-score” value is 0.0963.

For the sequence GGATCACA, the “PBM E-score” value came to 0.00764.

As to CCCCAGGG, the “PBM E-score” value was -0.162.

With TAGAGAGA, the “PBM E-score” value was -0.0644.

Regarding GTGATAAC, the “PBM E-score” value was -0.0988.

As to ACAAATCA, the “PBM E-score” value was found to be 0.141.

On to AGAGATGG, for which the “PBM E-score” value is 0.0839.

AGCTCAGC: the “PBM E-score” value was -0.314.

On to AACCATCG, for which the “PBM E-score” value was determined as 0.0301.

Regarding ACGCAGGG, the “PBM E-score” value is -0.127.

For CGTTTAAG, the “PBM E-score” value was 0.0149.

As for AAGCGGGG, the “PBM E-score” value was -0.0958.

As for CGCACTGC, the “PBM E-score” value was 0.22.

Regarding CTCGGTGC, the “PBM E-score” value turned out to be 0.0846.

On to AAATTTAC, for which the “PBM E-score” value was 0.171.

Turning to GAAAAACC, the “PBM E-score” value was determined as 0.145.

As to CAGTTAGG, the “PBM E-score” value was -0.125.

For AGTCTTAG, the “PBM E-score” value was -0.106.

As for AAATAGGG, the “PBM E-score” value was -0.0486.

On to GGCACTTA, for which the “PBM E-score” value stood at 0.243.

For the sequence TACGCCGA, the “PBM E-score” value was determined as 0.142.

Regarding CTCACGGC, the “PBM E-score” value is 0.282.

ATTGTACC: the “PBM E-score” value amounted to 0.0595.

For CACAGCTG, the “PBM E-score” value was -0.0909.

Consider GGTACCGA, for which the “PBM E-score” value was -0.258.

As for CCGGCCCC, the “PBM E-score” value is -0.348.

Consider GTTATACA, for which the “PBM E-score” value was 0.0473.

Turning to GAACAGTA, the “PBM E-score” value is 0.11.

As for GGGTAAAC, the “PBM E-score” value was -0.115.

For the sequence CAGAATGG, the “PBM E-score” value is -0.0168.

Consider ACCAGGGT, for which the “PBM E-score” value is -0.398.

Take ACCTTGAG: the “PBM E-score” value is -0.0698.

As to AGACGTCT, the “PBM E-score” value is -0.219.

Take AAATGTGT: the “PBM E-score” value is 0.158.

As to AGCGAATA, the “PBM E-score” value stood at 0.00608.

With CTGATGTA, the “PBM E-score” value is -0.0384.

Take TCAATGCA: the “PBM E-score” value is -0.0548.

For GTGAATCA, the “PBM E-score” value is -0.128.

Consider AACTGTAC, for which the “PBM E-score” value was -0.0967.

In the case of GTAATTCA, the “PBM E-score” value was found to be 0.196.

Consider GCCATGAC, for which the “PBM E-score” value was -0.218.

As to AAGCTATC, the “PBM E-score” value came to 0.039.

With AAAAGCGT, the “PBM E-score” value was -0.00328.

For the sequence CAGGAACG, the “PBM E-score” value amounted to 0.0246.

In the case of ATGTACGA, the “PBM E-score” value was -0.0524.

Turning to ACGGGTAG, the “PBM E-score” value is 0.0167.

CGACAGGC: the “PBM E-score” value is -0.0711.

In the case of ACCTCCAG, the “PBM E-score” value was -0.105.

In the case of ATGAAGTG, the “PBM E-score” value was found to be 0.0265.

With GTAACCGA, the “PBM E-score” value was -0.0281.

As for ATCAGTGC, the “PBM E-score” value was -0.0307.
